This passage reports z-score results from PubChem BioAssay AID488969 (Vanderbilt High Throughput Screening Facility, 2010).

In all, about 110,000 compounds were measured (“z-score”: median about -0.1, highest 2% from about 2 on). Some of the results follow. Calls of active or inactive are those of the source.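 The calls were made as follows: active = z-score in the third read window above 3 or below -3; inactive = the rest.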

The assay deals with Metabotropic glutamate receptor 8 (Rattus norvegicus) (UniProt P70579). The assay can be described thus: mGluR8 Gi/Go-coupled signaling modulation – cell-based, rat, thallium flux, HTS, primary screen (AID 488969). Particulars: HEK293 rat mGluR8, GIRK (G protein-gated inwardly rectifying potassium channel) thallium flux, FluoZin2; at 10 µM; stronger effect = higher value; submaximal glutamate (EC20) added with thallium.
Chain of UniProt P70579 (P70579 whole entry, looked up): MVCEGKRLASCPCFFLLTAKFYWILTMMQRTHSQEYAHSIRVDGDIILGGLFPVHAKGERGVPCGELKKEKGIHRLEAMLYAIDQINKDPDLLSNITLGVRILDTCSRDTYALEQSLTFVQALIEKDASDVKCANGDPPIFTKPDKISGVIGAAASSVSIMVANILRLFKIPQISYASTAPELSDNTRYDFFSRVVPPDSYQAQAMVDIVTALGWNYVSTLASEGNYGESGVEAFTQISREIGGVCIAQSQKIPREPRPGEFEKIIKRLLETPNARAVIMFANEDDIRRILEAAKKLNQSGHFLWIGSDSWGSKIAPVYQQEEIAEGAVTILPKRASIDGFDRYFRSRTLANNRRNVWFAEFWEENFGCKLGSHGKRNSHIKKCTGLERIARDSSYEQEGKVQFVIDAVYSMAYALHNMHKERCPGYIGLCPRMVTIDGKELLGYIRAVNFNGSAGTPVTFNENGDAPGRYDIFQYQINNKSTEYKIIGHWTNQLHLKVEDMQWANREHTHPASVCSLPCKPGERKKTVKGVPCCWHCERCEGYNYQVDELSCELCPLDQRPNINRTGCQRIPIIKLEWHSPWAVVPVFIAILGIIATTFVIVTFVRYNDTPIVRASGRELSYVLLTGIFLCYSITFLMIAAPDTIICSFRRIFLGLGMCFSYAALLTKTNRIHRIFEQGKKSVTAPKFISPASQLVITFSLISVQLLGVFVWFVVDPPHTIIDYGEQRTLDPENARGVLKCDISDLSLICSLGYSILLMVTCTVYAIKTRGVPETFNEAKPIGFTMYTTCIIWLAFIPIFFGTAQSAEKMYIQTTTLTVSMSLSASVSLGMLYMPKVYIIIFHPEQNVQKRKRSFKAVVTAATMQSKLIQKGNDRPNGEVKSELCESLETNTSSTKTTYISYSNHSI
Consider `CC(C)(C)c1cc(CN2CCCCC2)cc(C(C)(C)C)c1O`, for which the z-score was 0.603. `CCN(CC)CCn1c(=S)[nH]c2cc(Cl)ccc2c1=O`: the z-score amounted to 1.41. `O=c1[nH]c2ccc(Cl)cc2c(-c2ccccc2)c1SC(=S)N1CCOCC1` returned a z-score of 0.192. `Nc1nnc(SCC(=O)OCc2ccc(F)cc2)s1` yielded a z-score of -0.473. Take `CCCc1cc(=O)n2[nH]c(NCc3c(F)cccc3Cl)nc2n1`: the z-score is -2.49.

In turn, `Cc1ccc(N=CC=C2OC(C)(C)C(C)(C)O2)cc1` registered a z-score of 0.77. The same measure for `Cc1nnc(N2CCc3ccccc3C2)[nH]c1=O`: 0.569. The same measure for `CCC(C)c1ccccc1NC(=O)COC(=O)c1ccc2c(c1)S(=O)(=O)c1ccccc1C2=O` (stereo not drawn): 2.17. `O=C(CSc1nc2ccccc2s1)N1CCOCC1`: the z-score was determined as 0.742.

`O=C(Cc1ccccc1)Nc1ccc(-c2nnc(-c3ccco3)o2)cc1` registered a z-score of -0.0131.

The compound `CCn1c(=O)cc(OCC(=O)NC(C)c2ccc3c(c2)OCCO3)c2ccccc21` (stereo not drawn) registered a z-score of 0.0843.

The compound `O=C(NC1CCCCCC1)C1CCCN(S(=O)(=O)c2cccs2)C1` (stereo not drawn) returned a z-score of -0.353. `Cc1ccc(NS(=O)(=O)c2cc(C(=O)N3CCOCC3)ccc2C)cc1C` yielded a z-score of 0.258. The compound `O=C(c1ccc2ccccc2c1)N1CCN(c2ccccc2)CC1` registered a z-score of -0.394. With `COC(=O)CSc1nnc(-c2ccncc2)o1`, the z-score is -0.262. As to `N#Cc1nc(-c2cccc3ccccc23)oc1NCCN1CCCCC1`, the z-score was -0.288. Then `Cc1ccc(C)c(-n2[nH]c3c4c(ccc3c2=O)C(=O)c2ccccc2C4=O)c1`, with 0.0628; and `COc1ccccc1NS(=O)(=O)c1cc(C(=O)NCc2ccco2)ccc1C`, with -0.161; and `O=C(NCC1(N2CCOCC2)CCCCC1)c1ccc(Cl)c(S(=O)(=O)NCc2ccco2)c1`, with -0.0635. The same measure for `CC(=O)Cc1ccccc1OCC(=O)O`: -0.248; for `O=C(CN1C(=O)NC2(CCCC2)C1=O)NCCC1=CCCCC1`: -0.11.

`O=C1CSC(c2cn(-c3ccccc3)nc2-c2ccccc2)N1Cc1ccco1` (stereo not drawn) registered a z-score of -0.12. Compound `CC12CS(=O)(=O)CC1SC(=S)N2c1ccccn1` (stereo not drawn) yielded a z-score of 0.0183. Take `CCOC(=O)C(NC(=O)c1ccccc1)(OCc1ccccc1)C(F)(F)F` (stereo not drawn): the z-score stood at 0.0862. As to `CCOC(=O)Nc1ccc(S(=O)(=O)NCCCN2CCOCC2)cc1`, the z-score amounted to 1.02. As for `CC(Sc1ccc2c(c1)OCCO2)C(=O)Nc1ccc2c(c1)OCO2` (stereo not drawn), the z-score was -0.385. The same measure for `CCC(C)(C)NC(=O)C(c1cccn1C)N(C(=O)Cn1nnc2ccccc21)c1ccccc1OC` (stereo not drawn): -0.207; for `CCOC(=O)C(C)c1nn(C)c(=O)c2ccccc12` (stereo not drawn): 0.567; for `Cc1cccc(OCC(O)Cn2c(NCCCOC(C)C)nc3c2c(=O)[nH]c(=O)n3C)c1` (stereo not drawn): -0.0818.

Regarding `CCOc1ccc(C(=O)NCc2ccccc2)cc1Br`, the z-score is -0.29.

`O=C(Nc1ccc([N+](=O)[O-])cn1)c1ccc(Br)o1` had a z-score of -0.0194. Then `COc1ccccc1C(=O)OCC(=O)Nc1ccc(OC(F)F)cc1`, with -0.0664. In turn, `C=C(C)CSc1nc(N)c2c3c(sc2n1)CCC3` had a z-score of 0.465.

In the case of `Cc1ccc(-c2cc(C(F)F)n3ncc(C(=O)NCc4ccco4)c3n2)cc1`, the z-score is -0.697. Then `COc1cccc(-c2nnc(SCC(=O)OC(C)C)n2N)c1`, with -0.0143; and `CCOc1ccccc1N1CCN(S(=O)(=O)c2cccc3nsnc23)CC1`, with -0.0744.

The compound `C/C(=N\NC(=O)c1cccs1)C(C)(C)C` came in with a z-score of 0.209.

In the case of `CC(C)C(=O)Nc1ccnc(-c2cccnc2)n1`, the z-score was -0.0191. As for `COc1cc(OC)cc(C(=O)Nc2ccc(S(=O)(=O)Nc3cc(C)on3)cc2)c1`, the z-score is -1.5. For the compound `CCn1c2ccccc2c2cc(NC(=O)c3cccc(OC)c3OC)ccc21`, the z-score was -0.305. The same measure for `CCCn1cnc2c(c1=O)c1nc3ccccc3nc1n2Cc1ccccc1OC`: 0.281. Consider `COc1cc(C2NC(=O)NC(C)=C2C(=O)OC2CCCCC2)cc(Br)c1O` (stereo not drawn), for which the z-score was -0.193. In turn, `C#CCn1c(=NC(=O)c2ccc(S(=O)(=O)N3CCCc4ccccc43)cc2)sc2cc(S(N)(=O)=O)ccc21` gave a z-score of -0.41. Then `O=C1C(Cc2ccccc2)SC(=Nc2ccccc2)N1c1ccccc1` (stereo not drawn), with -0.208; and `O=C(CCCSc1nc2ccccc2[nH]1)Nc1nnc(-c2ccccc2)o1`, with -0.854. Then `COC(=O)CCCCCc1ccc(C(C)=O)s1`, with -0.208; and `N#CCSc1nnc(-c2cnccn2)n1Cc1ccccc1`, with 0.184. The compound `CC1(C)Cc2c(C#N)c(SCC(=O)c3ccccc3)nc(N3CCCC3)c2CO1` showed a z-score of 0.225. Compound `CCOc1cc(/C=N/NC(=O)c2cccnc2)ccc1OCC(=O)N1CCOCC1` gave a z-score of -0.431. The same measure for `O=C1CCC(C(=O)OCC(=O)N2N=C3/C(=C/c4ccccc4)CCCC3C2c2ccccc2)N1` (stereo not drawn): 0.101; for `Nc1nc(-c2ccccc2)c(N=Nc2ccccc2Cl)s1`: -0.215. For the compound `COc1ccc(NC(=S)N2C3CCC2CC(NC(=O)NC24CC5CC(CC(C5)C2)C4)C3)c(OC)c1` (stereo not drawn), the z-score is -0.164.

With `CCc1cccc2c(SCC(=O)NCC3CCCO3)nc(-c3ccc(F)cc3)nc12` (stereo not drawn), the z-score is -0.298. On to `CC(C)(C)C1=Nn2c(nnc2C2CCCCC2)SC1`, for which the z-score was -0.452. Compound `CCc1ccc(C(=O)COC(=O)c2ccc(-c3nnc(-c4ccccc4)o3)cc2)cc1` showed a z-score of -0.195. On to `CCCNC(=O)COC(=O)c1ccc(Cl)c(S(=O)(=O)N2CCCC2)c1`, for which the z-score was -0.409. Then `CCN(CC)c1ccc(/C=C(/C#N)C(=O)NCc2ccccc2)o1`, with -0.849; and `O=C(C1CCCCC1)N1CCCc2ccccc21`, with -0.789; and `CCOc1ccc2c(c1)c(C(C)=O)c(C)n2-c1ccccc1`, with -1.1. `CN1CCN(c2nc(-c3ccc(Br)cc3)nnc2-c2ccccc2)CC1`: the z-score is -0.829. Then `COCc1nnc(NC(=O)CCN2C(=O)c3ccccc3C2=O)s1`, with 0.12; and `O=C(c1ccc(Oc2ccc(C(F)(F)F)cn2)cc1)N1CCN(c2ccccc2)CC1`, with -0.631; and `Cc1cc(C)n2nc(SCc3nnc(SCc4ccccc4C)s3)nc2n1`, with -0.364. Turning to `CC(=O)Nc1ccc(NC(=O)c2sc3nc4c(c(-c5ccc(C)cc5)c3c2N)CCC4)cc1`, the z-score is -0.131. For the compound `COC(=O)CNC(=O)C(NC(=O)c1ccc(Cl)cc1)C(C)C` (stereo not drawn), the z-score was -0.965.

`Cc1ccc(CNC(=O)CCOc2ccc(C(C)(C)C)cc2)cc1` registered a z-score of -0.228. Then `COc1cccc(CNC(=O)N[C@@H](CC(C)C)C(=O)O)c1`, with -0.225; and `CCc1nnc(SCC(=O)NC2CCCCC2)nc1CC`, with -0.297. `Fc1ccc2nc(N3CCCCC3)sc2c1` gave a z-score of -0.15. Then `COc1ccc(N=Nc2nc3ccc(Br)cc3n2C)cc1`, with -0.114; and `CCOC(=O)N1CCN(S(=O)(=O)c2ccc(OCC)cc2)CC1`, with -0.0455; and `CCOC(=O)c1cnc2ccc(Br)cc2c1NCCO`, with 0.836. Then `CSCCC(NS(=O)(=O)c1ccccc1F)C(=O)OCc1ccccc1Cl` (stereo not drawn), with -1.46; and `Cc1ccc(Cl)cc1NC(=O)c1ccccc1OCC(=O)Nc1ccc(Cl)cc1`, with 0.163. Take `CCOC(=O)c1ccc[n+](CC(=O)c2ccccc2)c1`: the z-score is -0.134. Take `COC(=O)C1=C(C)N(C)C(=O)NC1c1ccc(C)cc1` (stereo not drawn): the z-score was -0.0358. Then `CCCCc1nnc(NC(=O)C(C)Sc2nc(C)cc(=O)[nH]2)s1` (stereo not drawn), with -0.337; and `CCOC(=O)N1CCC(NC(=O)CCC(=O)N2CCOc3ccc(C)cc32)CC1`, with -0.724. As for `CC1(C)CC(=O)c2sc(N)nc2C1`, the z-score is -0.129.

Turning to `CNC(=O)/C(C#N)=C/c1c(F)cccc1Cl`, the z-score is -0.361.

The compound `O=C1CC(N2CCCCCC2)C(=O)N1c1ccc2c(c1)OCO2` (stereo not drawn) had a z-score of 0.0652.

In the case of `CCOC(=O)c1cc2n(c1/N=C/N(C)C)-c1ccccc1C2=O`, the z-score is -0.437. The same measure for `CC(=O)c1ccc(NC(=O)CSc2nnc(-c3ccoc3C)n2Cc2ccccc2)cc1`: -0.586; for `Cc1ccc2nc(NC(=O)COC(=O)c3ccc(Br)o3)sc2c1`: -0.114; for `COc1ccc(CCNS(=O)(=O)c2cccc(C(=O)O)c2)cc1OC`: -0.0663. The same measure for `C=CCn1c(=S)[nH]c2ccccc2c1=O`: active: 13.6; for `COC(=O)c1c(-c2cccs2)csc1NC(=O)CSc1ncnc2sc(C)c(C)c12`: -0.00287. Compound `CCCC(=O)C1=C(O)C(C(=O)OC)C(C)(C)CC1=Nc1ccccc1` (stereo not drawn) had a z-score of -0.891.

Consider `O=C(N/N=C/c1cc(Br)ccc1O)Nc1ccccc1`, for which the z-score came out at 0.2. Then `c1ccc(Cn2ccc(-c3cnc(-c4ccccc4)s3)n2)cc1`, with -0.513; and `CCOC(=O)c1c(C)[nH]c(C)c1C(=O)CSc1ncccn1`, with 0.177; and `Cc1c(C(=O)OCC(=O)N(CCC#N)c2ccccc2)oc2c1ccc1ccccc12`, with 0.501.

In turn, `COc1ccc2cc(-c3cc(C(=O)OCC(=O)NC4CCS(=O)(=O)C4)c4ccccc4n3)ccc2c1` (stereo not drawn) returned a z-score of -0.0649. The same measure for `CCOC(=O)Cn1c(CCC(=O)O)ccc1-c1ccc(F)cc1`: -0.273; for `COc1cccc(NC(=O)C2CC2(c2cccc(OC)c2)c2cccc(OC)c2)c1` (stereo not drawn): -0.0635; for `CCOC(=O)C(NC(C)=O)(NS(=O)(=O)c1ccccc1)C(F)(F)F` (stereo not drawn): 0.17. `CC(C)CN1C(=O)c2ccc(NC(=O)c3ccccc3F)cc2C1=O` returned a z-score of -0.316. The same measure for `COc1cc(NC(=O)C(C)Oc2ccccc2)c(C(=O)O)cc1OC` (stereo not drawn): -1.95.

For the compound `Oc1ccccc1CNc1ccc(Br)cn1`, the z-score was active: 5.86. `CC(C)N(Cc1nc(-c2ccccc2)no1)C(=O)CN(C)S(=O)(=O)c1ccc(Br)cc1` had a z-score of -0.222. The same measure for `CCOC(=O)c1[nH]c2cc(OC)c(OC)cc2c1NC(=O)CN1CCN(C)CC1`: -0.276; for `Cn1c(N2CCC(C(N)=O)CC2)nc2c1c(=O)n(Cc1ccc(Cl)cc1)c(=O)n2C`: -0.154.

In turn, `COc1cc(Br)c(C(C)NC(=O)c2ccc(C)cc2)cc1OC` (stereo not drawn) came in with a z-score of 0.0238. `CN(C)CCNC(=O)Nc1cccc(Cl)c1Cl` gave a z-score of -0.0247. The same measure for `CCCCn1c(-c2cc(Cl)ccc2OC)n[nH]c1=S`: -0.132; for `NC(=O)C1CCN(C(=O)Cn2cccc2C(=O)c2ccccc2)CC1`: -0.256; for `COc1ccc(Cl)cc1C(=O)Nc1nnn(C)n1`: 0.00102.

Regarding `CC(C)(C)c1cc(CN2CCCC(O)C2)c(O)c(C(C)(C)C)c1` (stereo not drawn), the z-score was -0.11. The same measure for `CCC(C)NCCOc1ccc(Br)cc1` (stereo not drawn): 0.896; for `CC(C)(C)NC(=S)NCCc1ccccc1`: -0.166. The same measure for `CCCc1cc(C(=O)N2CCN(c3ccccc3C)CC2)cs1`: 0.332. Then `Cc1nc2cc(NC(=O)COc3ccccc3C#N)ccc2n1-c1ccccc1`, with -0.137; and `Cc1cc(=O)[nH]c(SCC(=O)c2c(N)n(C)c(=O)n(C)c2=O)n1`, with 0.229.
